{"source": "PubChem BioAssay", "note": "Inconclusive means that the source gave no clear call. Such entries were picked first, then a sample of the others. The source made the active and inactive calls.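 The calls were made as follows: active = viability at or below 27.92% in each of two runs, the all-compound median minus 4 SD; inconclusive = no clear call, values can overlap the other calls; inactive = the rest.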"}
{"test": "viability of PTEN-null HCT116 cells – cell-based, HCT116 clonal line, CellTiter-Glo, pilot screen (AID 824);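 also: 0% = 20 µM Hyamine control and 100% = vehicle cell control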", "settings": "HCT116 PTEN-deleted viability, 60 h, at 10 µM, hits give low values"}
{"smiles": "Cc1nc2c3c4c(sc3n3c(SCC(=O)NCc5ccco5)nnc3n2n1)COC(C)(C)C4", "viability": "inconclusive: 92.6%"}
{"smiles": "O=C1c2ccccc2C(Nc2ccc3c(c2)OCO3)N1Cc1ccco1", "note": "(centres undefined)", "viability": "inactive: 73.3%"}
{"smiles": "COc1ccc(-n2c(Cc3cccn3C)nnc2SCC(N)=O)cc1", "viability": "inactive: 94.4%"}
{"smiles": "CCOC(=O)c1ccc(NC(=O)CSc2nc3c(c(=O)n2CC)SC(C)C3)cc1", "note": "(centres undefined)", "viability": "inactive: 80.8%"}
{"smiles": "CCSc1oc(-c2ccco2)nc1S(=O)(=O)c1ccccc1", "viability": "inconclusive: 85.6%"}
{"smiles": "Clc1cccc(CSc2nnc([C@@H]3CCCN3)o2)c1", "viability": "inconclusive: 98%"}
{"smiles": "CC1(C)Cc2c(c(=S)nc(-c3ccccc3)n2CCOCCO)CO1", "viability": "inconclusive: 84.5%"}
{"smiles": "CSc1nnc(NC(=O)c2cc3ccccc3oc2=O)s1", "viability": "inactive: 95.5%"}
{"smiles": "CC(=O)NCC(=O)N(c1c(C)n(C)n(-c2ccccc2)c1=O)C1(C(=O)NC2CCCC2)CCCCC1", "viability": "inconclusive: 86.8%"}
{"smiles": "CCOC(=O)C1(c2csc(N)n2)COC(=O)C1", "note": "(centres undefined)", "viability": "inconclusive: 89%"}
{"smiles": "Cc1cccc(N2CCN(c3nc4ccccc4n4cnnc34)CC2)c1C", "viability": "inconclusive: 26.7%"}
{"smiles": "Cc1ccc(Cc2cnc(N)s2)o1", "viability": "inconclusive: 92.3%"}
{"smiles": "O=c1[nH]n(-c2ncnc3c2cnn3-c2ccccc2)c(=O)c2ccccc12", "viability": "inconclusive: 101%"}
{"smiles": "COc1ccc(-n2c(Cc3cccn3C)nnc2SCC(=O)N2CCC(C)CC2)cc1", "viability": "inactive: 94.5%"}
{"smiles": "Cc1cc(NC(=O)NC2(C(F)(F)F)Oc3ccc(Cl)cc3O2)no1", "note": "(centres undefined)", "viability": "inactive: 42.5%"}
{"smiles": "O=C(NCc1ccc2c(c1)OCO2)C1CCN(c2ccc(S(=O)(=O)N3CCCC3)cc2)CC1", "viability": "inconclusive: 62.1%"}
{"smiles": "Cc1cc(C)c(C#N)c(=N)o1", "viability": "inconclusive: 90.4%"}
{"smiles": "O=C(O)c1cc(S(=O)(=O)Nc2ccc3c(c2)OCCO3)c(Cl)cc1Cl", "viability": "inactive: 88.4%"}
{"smiles": "COc1ccccc1C(=O)Nc1nnc(-c2ccc3c(c2)CCCC3)o1", "viability": "inactive: 85.1%"}
{"smiles": "CN1CCc2c(sc3nc(SCC(=O)N4CCOCC4)nc(N)c23)C1", "viability": "inconclusive: 94.9%"}
{"smiles": "CCC(=O)N1CCc2cc(Br)cc(S(=O)(=O)N3CCN(c4ccccn4)CC3)c21", "viability": "inconclusive: 96.2%"}
{"smiles": "CC1(C)Cc2c(sc3c2c(=N)n(Cc2ccco2)c(=O)n3CC(=O)Nc2cccc(Cl)c2)CO1", "viability": "inconclusive: 87.8%"}
{"smiles": "CCOC(=O)c1ccccc1NC(=O)CC1Nc2ccccc2NC1=O", "note": "(centres undefined)", "viability": "inconclusive: 35.4%"}
{"smiles": "Cc1cccc(C)c1NC(=O)CSc1nnc([C@@H]2CCCN2C(=O)OC(C)(C)C)o1", "viability": "inconclusive: 100%"}
